According to the supplement of paper PMC8728848:
This is one part of the list.

Key:
Assay in all cases: glycan array binding signal (z-score within array); higher = stronger binding
Conditions in all cases: glycan notation: IUPAC condensed, linker removed
[1] = biological target: Neu5Ac(a2-3)Gal(b1-3)GlcNAc(b1-3)Gal(b1-3)GlcNAc
Outline: (§1)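 From the Consortium for Functional Glycomics database, 3228 arrays were curated, keeping only those whose protein sequence was available. Binding is given as a within-array Z-score averaged across arrays sharing a protein sequence and across linkers. Negative Z-scores can be read as non-binding.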

[2] = biological target: Neu5Ac(a2-3)Gal(b1-3)GlcNAc(b1-3)Gal(b1-4)GlcNAc
Outline: as §1

[3] = biological target: Neu5Ac(a2-3)Gal(b1-3)GlcNAc(b1-3)GalNAc
Outline: as §1

[4] = biological target: Neu5Ac(a2-3)Gal(b1-3)GlcNAc6S
Outline: as §1

[5] = biological target: Neu5Ac(a2-3)Gal(b1-3)[Fuc(a1-4)]GlcNAc
Outline: as §1

[6] = biological target: Neu5Ac(a2-3)Gal(b1-3)[Fuc(a1-4)]GlcNAc(b1-3)Gal(b1-3)[Fuc(a1-4)]GlcNAc
Outline: as §1

[7] = biological target: Neu5Ac(a2-3)Gal(b1-3)[Fuc(a1-4)]GlcNAc(b1-3)Gal(b1-4)[Fuc(a1-3)]GlcNAc
Outline: as §1

[8] = biological target: Neu5Ac(a2-3)Gal(b1-3)[Neu5Ac(a2-3)Gal(b1-4)]GlcNAc
Outline: as §1

[9] = biological target: Neu5Ac(a2-3)Gal(b1-3)[Neu5Ac(a2-6)]GalNAc
Outline: as §1

[10] = biological target: Neu5Ac(a2-3)Gal(b1-4)Glc
Outline: as §1

[11] = biological target: Neu5Ac(a2-3)Gal(b1-4)GlcNAc
Outline: as §1

[12] = biological target: Neu5Ac(a2-3)Gal(b1-4)GlcNAc(b1-2)Man(a1-3)[GlcNAc(b1-2)Man(b1-4)GlcNAc(b1-2)Man(a1-6)]Man(b1-4)GlcNAc(b1-4)GlcNAc
Outline: as §1

[13] = biological target: Neu5Ac(a2-3)Gal(b1-4)GlcNAc(b1-2)Man(a1-3)[Neu5Ac(a2-6)Gal(b1-4)GlcNAc(b1-2)Man(a1-6)]Man(b1-4)GlcNAc(b1-4)GlcNAc
Outline: as §1

[14] = biological target: Neu5Ac(a2-3)Gal(b1-4)GlcNAc(b1-3)Gal(b1-3)GlcNAc
Outline: as §1

[15] = biological target: Neu5Ac(a2-3)Gal(b1-4)GlcNAc(b1-3)Gal(b1-4)GlcNAc
Outline: as §1

[16] = biological target: Neu5Ac(a2-3)Gal(b1-4)GlcNAc(b1-3)Gal(b1-4)GlcNAc(b1-3)Gal(b1-4)GlcNAc
Outline: as §1

[17] = biological target: Neu5Ac(a2-3)Gal(b1-4)GlcNAc(b1-3)Gal(b1-4)[Fuc(a1-3)]GlcNAc
Outline: as §1

[18] = biological target: Neu5Ac(a2-3)Gal(b1-4)GlcNAc(b1-3)GalNAc
Outline: as §1

[19] = biological target: Neu5Ac(a2-3)Gal(b1-4)GlcNAc(b1-6)[Gal(b1-3)]GalNAc
Outline: as §1

[20] = biological target: Neu5Ac(a2-3)Gal(b1-4)GlcNAc(b1-6)[Neu5Ac(a2-3)Gal(b1-3)]GalNAc
Outline: as §1

[21] = biological target: Neu5Ac(a2-3)Gal(b1-4)GlcNAc6S
Outline: as §1

[22] = biological target: Neu5Ac(a2-3)Gal(b1-4)[Fuc(a1-3)]GlcNAc
Outline: as §1

[23] = biological target: Neu5Ac(a2-3)Gal(b1-4)[Fuc(a1-3)]GlcNAc(b1-3)Gal
Outline: as §1

[24] = biological target: Neu5Ac(a2-3)Gal(b1-4)[Fuc(a1-3)]GlcNAc(b1-3)Gal(b1-4)GlcNAc
Outline: as §1

[25] = biological target: Neu5Ac(a2-3)Gal(b1-4)[Fuc(a1-3)]GlcNAc(b1-3)Gal(b1-4)[Fuc(a1-3)]GlcNAc(b1-3)Gal(b1-4)[Fuc(a1-3)]GlcNAc
Outline: as §1

[26] = biological target: Neu5Ac(a2-3)Gal(b1-4)[Fuc(a1-3)]GlcNAc(b1-3)GalNAc
Outline: as §1

[27] = biological target: Neu5Ac(a2-3)Gal(b1-4)[Fuc(a1-3)]GlcNAc(b1-6)[Gal(b1-3)]GalNAc
Outline: as §1

[28] = biological target: Neu5Ac(a2-3)Gal(b1-4)[Fuc(a1-3)]GlcNAc(b1-6)[Neu5Ac(a2-3)Gal(b1-3)]GalNAc
Outline: as §1

[29] = biological target: Neu5Ac(a2-3)Gal(b1-4)[Fuc(a1-3)]GlcNAc6S
Outline: as §1

[30] = biological target: Neu5Ac(a2-3)Gal6S(b1-4)GlcNAc
Outline: as §1

[31] = biological target: Neu5Ac(a2-3)Gal6S(b1-4)[Fuc(a1-3)]GlcNAc
Outline: as §1

[32] = biological target: Neu5Ac(a2-3)GalNAc
Outline: as §1

[33] = biological target: Neu5Ac(a2-3)GalNAc(b1-4)GlcNAc
Outline: as §1

[34] = biological target: Neu5Ac(a2-3)[GalNAc(b1-4)]Gal(b1-4)Glc
Outline: as §1

[35] = biological target: Neu5Ac(a2-3)[GalNAc(b1-4)]Gal(b1-4)GlcNAc
Outline: as §1

[36] = biological target: Neu5Ac(a2-3)[GalNAc(b1-4)]Gal(b1-4)GlcNAc(b1-3)GalNAc
Outline: as §1

[37] = biological target: Neu5Ac(a2-3)[Neu5Ac(a2-6)]GalNAc
Outline: as §1

[38] = biological target: Neu5Ac(a2-6)Gal
Outline: as §1

[39] = biological target: Neu5Ac(a2-6)Gal(b1-4)Glc
Outline: as §1

[40] = biological target: Neu5Ac(a2-6)Gal(b1-4)GlcNAc
Outline: as §1

B1: Gal 1 (Canis lupus) (protein)
chain: MACGLVASNLSLKPGQCLRVQCEVVPEAKSFVLNLGKDGDNLCLHFNPRFEAHGDVNTIVCNSKDGGAWGEELRESAFPFQPGTVTEVCISFDQADLTIKLPDGYTFKFPNRLNLEAISYLAADGDMKIKCLAFD
[1]
  glycan array binding signal (z-score): 1.25
[2]
  glycan array binding signal (z-score): 1.66
[3]
  glycan array binding signal (z-score): 0.266
[4]
  glycan array binding signal (z-score): -0.31
[5]
  glycan array binding signal (z-score): -0.327
[6]
  glycan array binding signal (z-score): -0.298
[7]
  glycan array binding signal (z-score): -0.322
[8]
  glycan array binding signal (z-score): -0.327
[9]
  glycan array binding signal (z-score): -0.299
[10]
  glycan array binding signal (z-score): -0.03
[11]
  glycan array binding signal (z-score): 0.135
[12]
  glycan array binding signal (z-score): 3.31
[13]
  glycan array binding signal (z-score): 0.466
[14]
  glycan array binding signal (z-score): 0.446
[15]
  glycan array binding signal (z-score): 0.533
[16]
  glycan array binding signal (z-score): 2.07
[17]
  glycan array binding signal (z-score): -0.336
[18]
  glycan array binding signal (z-score): -0.047
[19]
  glycan array binding signal (z-score): -0.078
[20]
  glycan array binding signal (z-score): -0.299
[21]
  glycan array binding signal (z-score): 0.046
[22]
  glycan array binding signal (z-score): -0.327
[23]
  glycan array binding signal (z-score): -0.306
[24]
  glycan array binding signal (z-score): -0.302
[25]
  glycan array binding signal (z-score): -0.333
[26]
  glycan array binding signal (z-score): -0.17
[27]
  glycan array binding signal (z-score): -0.244
[28]
  glycan array binding signal (z-score): -0.283
[29]
  glycan array binding signal (z-score): -0.322
[30]
  glycan array binding signal (z-score): -0.313
[31]
  glycan array binding signal (z-score): -0.322
[32]
  glycan array binding signal (z-score): -0.293
[33]
  glycan array binding signal (z-score): -0.307
[34]
  glycan array binding signal (z-score): -0.292
[35]
  glycan array binding signal (z-score): -0.32
[36]
  glycan array binding signal (z-score): -0.316
[37]
  glycan array binding signal (z-score): -0.261
[38]
  glycan array binding signal (z-score): -0.257
[39]
  glycan array binding signal (z-score): -0.224
[40]
  glycan array binding signal (z-score): -0.326
